No constants are given. Whether binding was seen depends on the method and setting. Binding seen in cells or lysates may run through a third protein. Some entries that bind do so weakly or less than the wild type. For some of these results: Where a sequence is shown, tags or fusion partners need not be part of it. Values belong to the binder of their own block, whether it stands above or below them.
Legend:
FLAG-BAG5 (mouse) = target: T1, FLAG-BAG5 (mouse) (UniProt Q8CI32); assay: co-IP; HEK293T cells co-transfected with FLAG- and MYC-tagged mouse constructs, lysate, Western blot
T1 sequence: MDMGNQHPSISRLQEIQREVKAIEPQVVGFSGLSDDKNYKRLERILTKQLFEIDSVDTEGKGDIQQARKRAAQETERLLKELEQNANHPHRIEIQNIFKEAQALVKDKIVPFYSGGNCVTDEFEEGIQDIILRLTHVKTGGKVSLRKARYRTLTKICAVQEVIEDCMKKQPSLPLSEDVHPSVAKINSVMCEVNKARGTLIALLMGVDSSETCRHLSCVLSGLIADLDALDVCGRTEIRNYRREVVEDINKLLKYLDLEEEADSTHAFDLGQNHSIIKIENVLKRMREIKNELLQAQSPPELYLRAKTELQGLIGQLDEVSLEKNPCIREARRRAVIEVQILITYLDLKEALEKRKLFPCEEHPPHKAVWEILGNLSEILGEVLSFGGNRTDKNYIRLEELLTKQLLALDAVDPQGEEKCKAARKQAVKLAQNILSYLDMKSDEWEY

By UniProt entry, the sequences of proteins in these tests, tags left out. Where a name states a change or a piece, a line headed by the entry shows the natural chain unless it says otherwise. Chains listed by the source or under a name are the forms on record and can include a tag or linker.
UniProt P63017: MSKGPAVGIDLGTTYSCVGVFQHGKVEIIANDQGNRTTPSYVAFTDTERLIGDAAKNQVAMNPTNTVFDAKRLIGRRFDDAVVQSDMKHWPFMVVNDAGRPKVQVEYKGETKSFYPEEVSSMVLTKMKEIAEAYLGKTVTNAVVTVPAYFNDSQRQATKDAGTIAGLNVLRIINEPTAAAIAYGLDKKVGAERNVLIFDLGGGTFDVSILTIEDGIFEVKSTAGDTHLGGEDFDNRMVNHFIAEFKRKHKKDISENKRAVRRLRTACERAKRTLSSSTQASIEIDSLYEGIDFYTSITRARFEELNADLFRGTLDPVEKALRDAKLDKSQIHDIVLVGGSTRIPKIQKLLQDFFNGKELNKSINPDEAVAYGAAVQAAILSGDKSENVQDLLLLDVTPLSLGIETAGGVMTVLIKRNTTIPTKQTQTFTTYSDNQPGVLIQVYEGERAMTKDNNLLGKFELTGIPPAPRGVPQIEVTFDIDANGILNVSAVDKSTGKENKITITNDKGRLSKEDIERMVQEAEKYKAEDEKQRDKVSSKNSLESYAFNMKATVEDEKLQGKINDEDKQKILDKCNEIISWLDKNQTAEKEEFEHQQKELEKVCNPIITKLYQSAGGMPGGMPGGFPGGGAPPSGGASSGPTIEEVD
nucleotide-binding domain mutant of pCAG-STREP-HSPA8 (deletion of 2–386 amino acids) (P63017, form named): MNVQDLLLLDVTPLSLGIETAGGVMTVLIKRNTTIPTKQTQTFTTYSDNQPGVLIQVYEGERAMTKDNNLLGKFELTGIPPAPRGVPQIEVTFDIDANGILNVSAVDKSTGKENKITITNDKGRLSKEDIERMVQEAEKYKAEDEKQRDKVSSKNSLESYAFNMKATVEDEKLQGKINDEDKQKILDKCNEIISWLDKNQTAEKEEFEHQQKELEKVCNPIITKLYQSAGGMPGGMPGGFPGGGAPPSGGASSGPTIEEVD
UniProt P11142: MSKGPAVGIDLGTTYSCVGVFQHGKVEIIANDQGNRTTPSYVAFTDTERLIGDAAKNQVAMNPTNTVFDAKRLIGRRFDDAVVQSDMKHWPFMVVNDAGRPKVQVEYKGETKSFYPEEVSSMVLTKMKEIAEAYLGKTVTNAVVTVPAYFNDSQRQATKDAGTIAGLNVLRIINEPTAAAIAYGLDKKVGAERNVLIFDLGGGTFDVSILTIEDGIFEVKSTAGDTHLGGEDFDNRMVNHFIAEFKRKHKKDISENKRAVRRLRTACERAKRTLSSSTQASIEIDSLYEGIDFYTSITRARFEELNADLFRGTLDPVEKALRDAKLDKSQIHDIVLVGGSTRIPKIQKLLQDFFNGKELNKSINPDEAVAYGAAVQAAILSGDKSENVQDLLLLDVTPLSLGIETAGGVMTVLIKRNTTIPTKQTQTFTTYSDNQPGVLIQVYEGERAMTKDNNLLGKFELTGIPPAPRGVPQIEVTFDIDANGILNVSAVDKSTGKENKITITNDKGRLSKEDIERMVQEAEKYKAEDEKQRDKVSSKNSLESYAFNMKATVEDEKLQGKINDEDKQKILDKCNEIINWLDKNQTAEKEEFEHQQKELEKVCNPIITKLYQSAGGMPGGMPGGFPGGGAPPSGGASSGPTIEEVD

MYC-HSPA8 (mouse) = MYC-HSPA8 (mouse) (UniProt P63017); assay: as above
[1] = target: HSPA8 (heat shock cognate 70 kDa protein) (mouse (endogenous in mouse testis)) (UniProt P63017); assay: condition: only in the absence of BAG5 (Bag5 KO testes); co-IP; HSPA8 IP from Bag5 KO mouse testis lysate, Western blot; IgG as negative control
[2] = target: HSPA8 (heat shock cognate 70 kDa protein) (mouse (endogenous in mouse testis)) (UniProt P63017); assay: co-IP; endogenous proteins from WT mouse testis lysate (20 mM HEPES, 150 mM NaCl, 0.5% NP-40, 1 mM DTT, pH 7.3), protein A/G magnetic beads, Western blot; IgG as negative control; in Fig. 8B lysates also treated with ATP (HSPA8-SPATA6 binding reduced)
[3] = target: HSPA8 (in HeLa cells) (human (endogenous in HeLa)) (UniProt P11142); assay: condition: only in the absence of BAG5 (BAG5 KO HeLa cells); co-IP; HSPA8 IP from BAG5 KO HeLa cells co-transfected with pCAG-BAG5 (or pCAG) and pCAG-SPATA6, Western blot; IgG as negative control
[4] = target: HSPA8 (in HeLa cells) (human (endogenous in HeLa)) (UniProt P11142); assay: co-IP; HSPA8 IP from WT HeLa cells co-transfected with pCAG-BAG5 (or pCAG) and pCAG-SPATA6, Western blot; IgG as negative control
STREP-HSPA8 (mouse) = STREP-HSPA8 (mouse) (UniProt P63017); assay: co-IP; HEK293F cells co-transfected with a STREP-tagged bait (HSPA8, its NBD deletion, or BAG5) and the untagged partners from pCAG; lysate without added nucleotide (for STREP-BAG5 also with ATP: weakened)
[5] = target: nucleotide-binding domain mutant of pCAG-STREP-HSPA8 (deletion of 2–386 amino acids) (mouse) (UniProt P63017); assay: as above

binding (FLAG-BAG5 (mouse)): no binding
B1: MYC-PMFBP1 (protein, UniProt Q9WVQ0 1-1022)
chain: MLKLKGELRTAKGLKNEAGERDRDVSNLNSKLLSLQLDIKNLHDVCKRQGKTLQENQLCVEEAMLKANHNKKQAQTLVFTDNQMDFRVNKQYHLRQLQQLKKKLLTLQQELEFRTQELQASYCSLLQYQSILEKQTSDLLVLHRHCKLKEDEVILYEEEMGNHSKSTGEKLHLAQEQLALAGDKILSLERSLNLYRDKYQTSLSNIELLECQVKMLEGELSGLIGQDPENKGDHPKVRIYTSPCVIQEHQETLKRLSEVWQKVSEQDDLIQELRNKLACSNSLVLEREEALIKLQAEFASYTATHRHPPTSSEDCEDITKILKHLQEQKDSQCLHVEEYQNLVKDLRMELEAVSEQKKKIMKDMMKLELDLHGLREETSCVIEKKDKETVFLQYRLQDLQQQYTESQKLSLKKDKLLQDKDERLHELEKNLMQVQNSLREKEAELEKLQCTTKELDTSLQEARQSTSKIDCEALRAEIQKLKDSLEEAREQLKVSDQNLTQSKEEAHLSASSLEDAHRKIENCLLQDKQKEEVIKDLQSQLHKLQKESSKIEEERKHNRQRLQELSSELSEGQRRLSNAEKEKSLLQKTLDEDEKKIDELFHSTQVSEQKQRELTNSIRKLEEELLEIKGLLEEKREQLKKSKEQEKALEEEIEALRQEAKRKEKMAKEHLRKLDEEKENLQAELTSRSSHLDSSLNKYNSSQKVIQELNAEIARQKDSIMILQTQLDSAIQKEKNCFQNMVSKEAYEELVRKSGNCQDDLTQALEKLTQATSETKSLNRSLQQTQERKAQLEDEIAAYEERMKKLNMELKKLQGFQQQSEQEVHNFDKKLEEMSNQVLQWQRQHQSDLKMLAAKESQLREFQEEMATLRESLLADEKEPYSPPAKLTPKETCRHHRENDQIMNNVEQWAKEQKIANEKLGNKLREQVKYIAKLTGEKDHLHNVMVHLQQENKKLKNEIEEKKLKAGNPRICVKAFPPNKLEPSQKGKLCCALGWRGIPQDLTPKTDHKYMGLPHSSGSSYC

binding (FLAG-BAG5 (mouse)): no binding
B2: MYC-SUN5 (protein, UniProt Q9DA32 1-373)
chain: MPRTRNIGALCTLPEDTTHSGRPRRGVQRSYISRMAEPAPANMNDPLLLPLRMNTPGLSLVQILLGYMSWLTYLACFLRTQTQQVFLNTCRCKLFCQKVMEKMGLLVLCVFGFWMFSMHLPSKVEVWQDDSINGPLQSLRMYQEKVRHHTGEIQDLRGSMNQLIAKLQKMEAISDEQKMAQKIMKMIQGDYIEKPDFALKSIGASIDFEHTSATYNHDKARSYWNWIRLWNYAQPPDVILEPNVTPGNCWAFASDRGQVTIRLAQKVYLSNITLQHIPKTISLSGSPDTAPKDIVIYGLESLPREEVFLGAFQFQPENVIQMFQLQNLPPRSFAAVKVKISSNWGNPRFTCMYRVRVHGSVTPPKDSHLEPLS

binding (FLAG-BAG5 (mouse)): no binding
B3: MYC-CENTLEIN (protein, UniProt A2AM05 1-1397)
chain: MAARSPSSSPPPPPVRRSSRRSLRVGRGAEVHAVRSEASGLAGAAREVVADKSDLLWRGEEGSGGRRGSGRAGAAVAPVASAPAGSWWPEGLSSEEAKATRSQLLEEELSSLKEELALCQADKEFVWSLWRRLQATNPDLTQTVSLVVEREKQKSEAKDRKVLEILQVKDSKIQELEQTESVLKQELHDLVKLKTLVDEENAFLRKELCDLQKKFKDKSQEVKDAKECVQSKEEQNRLVIKNLEEENERLRTRCTDLLNDLEKLRNQEAHWRKEKHSVDTRVKVLEENLIEAKKEIESAQTKYNVVSQQLNNKQAELLQKDMDITLIRKELQELQNVYKQNSAHTAQQADLIQQLQALNMDTQKVLRNQEDVHTAESMSYQKLYNELHMCFETTKSNEVMLRQSVVNLQGQLFQKEQENVKLKEKLEESQGTAPSLSPHDSDSSHSGKAPLSTLETLMISQKSEIEYLQKKLKVANEKLMANRSCDQDFSEKGTEGKHKEPPVKRSRSLSPKSSFMGSEELRKLKKAERKIENLEKTLQLKSQENDELRDAHEKRKERLQMLHTNYRAVKEQLKQWEEDSGMAESRQMKRAEPHQLRQEDSDAVWNELAYFKRENQELMVQKMTLQDELDELKMHMSIDKTTIQELNRCMAEKREEQLFRQHEDAEVKKSTPEKNEKAISEETLQKVIELENRLKSFEKNSRKLKEESKRLKKENDFLKSHLKHYQEDSEAREKELEQLLRVSKDVEHDKSELQTKITALETEVTTLRRQVTEAKALRGKDEEVVCPEERAHRPTDKAKSEMATTDVRARRCDCKTATTKVKFKAAKRKCSVGRHHTVLNHSIKVMSHVENLSKDGWEDVSEGSSDSETQTFQNLGTIIVETSQNISPIEDGRNQKEIDQTEGSCAQQRAMQTYSCEDIKAPQSISHNKNTKKMTFQKKSGSLQKSLHSALPARVNREKCKNLPAQKSSSSTISLRERIVSLQQQNSLLQNARRAAEASAKEYKEANEKLLHQQQVSDHRFQTSRQTIKKLTLDLAELRKEKEDLLKKVESSSDIMSLAEEVSRIMAPQIKVTTLGPSRSMDLEMKQLQCKLKNATNELTKQSSNVKSLRMELLAKDDHIKEMHERTSRMERDITMKRHLIEDLKFRQKVNSESNESFNEMLETLEKKVKSLTEECSNKKVSVDSLKQRLNVAVKEKSQYEQMYQKTKEELEKKDLKMSVLISKLNDTETAMAQIETAASEQLQGLALQSEQVLEGAQKKLLSANEKIEEFTVFVKALVNELQSDVHGTRHQIRELKKMQKSRHACKTSTHKAQTLAASILNISRSDLEEILDTEDELEIEKTKIDIENDKEWMLYIQKLLEGQLPFASYLLEAVLEKIKENKKLTEGYFTVMKDTK

binding (MYC-HSPA8 (mouse)): binds
B4: FLAG-SPATA6 (protein, UniProt Q3U6K5 18-488)
chain: VTCPGVVLKDKEDIYLSICVFGQYKKTQCVPATFPLVFNARMVFEKVFPEAVDPGDVVAQLEYDTAVFELIQLVPPVGETLSTYDENTRDFMFPGPNQMSGHHDSNRQVTMRRISGLRGIAPKLEFSTTSVITECLISSRKCRTQDKFTYHSAPVEKSHGRLQCRTSRSQKKKSKSPERSKYCINTKNYEQPTISSKSHSPSPYTKRRMCELSEDTRRRLAHLNLGPYEFKKETDKPPFVIRHVDPPSPRTDNFFGSPGRDCERDGWVRMHSDHPHIGCCRSKDYKVIRSPHGRDFEDPFERCEEYLSPRTCSKPQHSARTLLVHSAPSTTPKHCASPVLNRASLRERFHSDWCSPPNCDEIHDRVKDVLKSHQAHARHLCDERDPEREDELELKRSLLYRDSAYDSDPEYSSFQRPRGSFHLDDGECWSNRAASCKGKSHRPVFENSMDKMYRNLYKKACSSVSHTQESF

binding [1]: no binding
binding [2]: binds
B5: Spermatogenesis Associated 6 (SPATA6) (protein, UniProt Q3U6K5 18-488)
chain: VTCPGVVLKDKEDIYLSICVFGQYKKTQCVPATFPLVFNARMVFEKVFPEAVDPGDVVAQLEYDTAVFELIQLVPPVGETLSTYDENTRDFMFPGPNQMSGHHDSNRQVTMRRISGLRGIAPKLEFSTTSVITECLISSRKCRTQDKFTYHSAPVEKSHGRLQCRTSRSQKKKSKSPERSKYCINTKNYEQPTISSKSHSPSPYTKRRMCELSEDTRRRLAHLNLGPYEFKKETDKPPFVIRHVDPPSPRTDNFFGSPGRDCERDGWVRMHSDHPHIGCCRSKDYKVIRSPHGRDFEDPFERCEEYLSPRTCSKPQHSARTLLVHSAPSTTPKHCASPVLNRASLRERFHSDWCSPPNCDEIHDRVKDVLKSHQAHARHLCDERDPEREDELELKRSLLYRDSAYDSDPEYSSFQRPRGSFHLDDGECWSNRAASCKGKSHRPVFENSMDKMYRNLYKKACSSVSHTQESF

binding [3]: no binding
binding [4]: binds
B6: SPATA6 (pCAG-SPATA6, in HeLa cells) (protein, UniProt Q3U6K5 18-488)
chain: VTCPGVVLKDKEDIYLSICVFGQYKKTQCVPATFPLVFNARMVFEKVFPEAVDPGDVVAQLEYDTAVFELIQLVPPVGETLSTYDENTRDFMFPGPNQMSGHHDSNRQVTMRRISGLRGIAPKLEFSTTSVITECLISSRKCRTQDKFTYHSAPVEKSHGRLQCRTSRSQKKKSKSPERSKYCINTKNYEQPTISSKSHSPSPYTKRRMCELSEDTRRRLAHLNLGPYEFKKETDKPPFVIRHVDPPSPRTDNFFGSPGRDCERDGWVRMHSDHPHIGCCRSKDYKVIRSPHGRDFEDPFERCEEYLSPRTCSKPQHSARTLLVHSAPSTTPKHCASPVLNRASLRERFHSDWCSPPNCDEIHDRVKDVLKSHQAHARHLCDERDPEREDELELKRSLLYRDSAYDSDPEYSSFQRPRGSFHLDDGECWSNRAASCKGKSHRPVFENSMDKMYRNLYKKACSSVSHTQESF

binding (STREP-HSPA8 (mouse)): binds
binding [5]: binds
B7: SPATA6 (pCAG-SPATA6) (protein, UniProt Q3U6K5 18-488)
chain: VTCPGVVLKDKEDIYLSICVFGQYKKTQCVPATFPLVFNARMVFEKVFPEAVDPGDVVAQLEYDTAVFELIQLVPPVGETLSTYDENTRDFMFPGPNQMSGHHDSNRQVTMRRISGLRGIAPKLEFSTTSVITECLISSRKCRTQDKFTYHSAPVEKSHGRLQCRTSRSQKKKSKSPERSKYCINTKNYEQPTISSKSHSPSPYTKRRMCELSEDTRRRLAHLNLGPYEFKKETDKPPFVIRHVDPPSPRTDNFFGSPGRDCERDGWVRMHSDHPHIGCCRSKDYKVIRSPHGRDFEDPFERCEEYLSPRTCSKPQHSARTLLVHSAPSTTPKHCASPVLNRASLRERFHSDWCSPPNCDEIHDRVKDVLKSHQAHARHLCDERDPEREDELELKRSLLYRDSAYDSDPEYSSFQRPRGSFHLDDGECWSNRAASCKGKSHRPVFENSMDKMYRNLYKKACSSVSHTQESF

— paper PMC11015022
